Experimental data published in PubChem BioAssay AID493208 (National Center for Advancing Translational Sciences (NCATS), 2011).
In all, about 44,000 compounds went through this assay and about 340 (0.77%) were called active. Another 5% or so got no clear call; they are omitted. Calls follow the shape of the dose curve; as a rule, active = well fitted inhibition curve with a large enough effect; inconclusive = small, poorly fitted or top-dose-only effect; inactive = flat fitted curve, though single readings scatter. Some of the results follow.

assay: Acumen qHTS Assay for Inhibitors of the mTORC1 Signaling Pathway in MEF (Tsc2-/-, p53-/-) Cells: Sytravon; details: phospho-rpS6 immunofluorescence/PI, 24 h; series mostly up to 38.3 µM; activity change, negative = inhibition: at the top concentration;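 also: plate controls were DMSO for no effect and rapamycin for full effect; nearly all actives have a fitted effect of over 50% in size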
Procedure, shortened: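 Plate MEFs (Tsc2-/-, p53-/-, empty vector) in DMEM/10% FBS; after 24 h add compound, incubate 24 h at 37 degree Celsius; fix in PFA/TX-100, block, stain phospho-rpS6 and 10 uM PI; scan at 488 nm; report % positive cells.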

Activity change, negative = inhibition, inactive:
CCOC(=O)Cn1nc(C)c(NC(=O)COc2ccc(OC)cc2)c1C 6.77%, Cc1ccccc1C(=O)Nc1ccc(NC(=O)c2cccs2)cc1 3.62%, CCOc1ccc(-c2csc3ncnc(Nc4cccc(O)c4)c23)cc1 -17.4%, CCn1c2ccccc2c2cc(NC(=O)COc3cc(C)c(Cl)c(C)c3)ccc21 0.354%, COc1ccc(C(=O)NCC(c2ccco2)S(=O)(=O)c2ccccc2)cc1 (stereo not given) 0.252%, CCOC(=O)c1c(C)oc2nc(C)nc(N3CCN(c4ccc(C)cc4C)CC3)c12 -9.01%, CC(=O)N1CCCc2cc(S(=O)(=O)N3CCC(C(=O)NCc4ccc(F)cc4)CC3)ccc21 -8.11%, Cc1cccc(NC(=O)C2CCC(CNS(=O)(=O)c3ccc4c(c3)CCCC(=O)N4)CC2)c1C (stereo not given) 12.7%, CCCN(C(=O)C1CCN(S(=O)(=O)c2c(C)noc2/C=C/c2ccc(C)cc2)CC1)c1ccccc1F -1.76%, Cc1nc(-c2ccc(F)cc2)sc1CCNC(=O)c1ccccc1 0.833%, CC(=O)c1ccc(NC(=O)c2cccc(NC(=O)N3CCSc4ncccc43)c2)cc1 0%, CCOCCCNC(=O)c1c(NC(=O)Cc2coc3c(C)c(C)ccc23)sc2c1CCC2 -17.4%, Cc1cc(C)cc(N(C)S(=O)(=O)c2nnc(NC(=O)COc3ccc(C)c(C)c3)s2)c1 3.82%, CCCN(Cc1cc2cc(C)ccc2[nH]c1=O)C(=O)c1cccc(Cl)c1 -2.25%, COC(=O)c1cc(C)nc2c1c(=O)nc(SCc1cc(C)ccc1C)n2C1CC1 -0.0731%, COc1cc(OC)c(NC(=O)COc2ccccc2-c2nnc(-c3ccccc3)o2)cc1Cl -12.4%, CCc1ccccc1Nc1nn2c(=O)c3ccc(C(=O)NCCc4ccccc4)cc3nc2s1 -0.807%, Cc1c(Cl)cccc1NC(=O)CN1C(=O)c2ccccc2Sc2ncccc21 -4.01%, Cc1cccc(C(=O)NC2(C(F)(F)F)N=C(c3ccccc3)N(Cc3ccccc3)C2=O)c1 (stereo not given) -19.2%, CC(=O)N1CCc2c(sc3c2c(=O)n(-c2ccccc2Cl)c(=O)n3C)C1 0.0261%, Cc1ccc(-c2c(CN3CCN(c4cc(Cl)ccc4C)CC3)csc2C)cc1 1.14%, O=C(CSc1nc2ccccc2n1CC(=O)Nc1ccc(F)cc1F)Nc1ccc(F)cc1 -11.4%, CCOc1ccc2c(c1)c(=O)c(S(=O)(=O)c1ccc(C)cc1)cn2CC(=O)Nc1ccc(C)cc1 -17.7%, COc1ccc(-n2c(SCc3nc(-c4ccc(C)cc4)no3)nnc2-c2ccncc2)cc1 -1.98%, COCCCN1CCc2nc(SCC(=O)Nc3ccc(C)c(Cl)c3)[nH]c(=O)c2C1 2.32%, CCn1c(=O)c2cc(C(=O)NCCc3cccc(C)c3)sc2c2ccccc21 -3.48%, CCCCNc1sc(S(=O)(=O)CC)nc1S(=O)(=O)c1ccc(C)cc1 -12.3%, CNS(=O)(=O)c1cn(CC(=O)Nc2ccc(F)cc2F)cc1S(=O)(=O)NC 0.847%, Cc1ccc(N2CC(c3nnc(Cc4ccc(Cl)cc4)o3)CC2=O)cc1 (stereo not given) 3.04%, CC(=O)Nc1cc(C(=O)NCc2ccccc2)ccc1Sc1ccc(C)cc1 8.75%, CCc1ccccc1NC(=O)CSc1nnc(-c2cc(OC)c(OC)c(OC)c2)o1 0.318%, Cc1cccc(C(=O)Nc2ccc(-c3nc4ccccc4s3)c(C)c2)c1 -11%, Cc1ccc(CNC(=O)C(C(C)C)N2Cc3ccccc3C2=O)cc1 (stereo not given) -1.85%, CCN(c1ccc(OC)cc1)S(=O)(=O)c1c(C(=O)N2CCCCCC2)c(C)n(C)c1C -11.2%, COc1ccc(N2CCN(CC(O)COc3ccccc3C(C)(C)C)CC2)cc1 (stereo not given) -17.1%, O=C(NC1CCCCC1)c1ccc(Cn2c(SCc3cccc(F)c3)nc3cccnc32)cc1 0%, CN(C(=O)CSc1cn(CC(=O)N2CCCCCC2)c2ccccc12)c1ccccc1 -6.77%, CCOCCCNC(=O)c1cnc2sc(N3CCCCCC3)nn2c1=O -3.94%, CCOc1ccc(NC(=O)Cn2c(=O)n(CCc3ccccc3)c(=O)c3c4c(sc32)CN(C(C)=O)CC4)cc1 -1.54%, CCc1ccc(NC(=O)CSC2=Nc3ccccc3C3=NC(CCC(=O)NCc4ccccc4OC)C(=O)N23)cc1 (stereo not given) -3.14%, O=C(CCc1nc(-c2ccccc2F)no1)Nc1cccc(C(F)(F)F)c1 -13.2%, Cc1ccc(C)c(N2CCN(C(=O)c3cccc(-n4c(C)nc5cccnc54)c3)CC2)c1 -8.39%, Cc1ccc(CC(=O)N(Cc2nc(-c3ccc(C)cc3)no2)C(C)C)cc1 -5.2%, Cc1nn(-c2ccccc2)c(OC(=O)c2ccc(Br)cc2)c1S(=O)(=O)c1ccccc1 7.95%, CCOc1ccc(OCC)c(NC(=O)c2cc(C)nc3c2c(C)nn3-c2cccc(Cl)c2C)c1 1.14%, Cn1c(=O)c2sccc2n2c(CCCC(=O)Nc3ccc(F)cc3F)nnc12 0%, CCn1c(CN2CCN(c3cccc(Cl)c3)CC2)nc2c1c(=O)[nH]c(=O)n2C -13.8%, Cc1cc2nn(-c3ccc(Cl)cc3)nc2cc1NC(=O)C(C)C 4.62%, COCCCNc1ncnc2c1c(-c1ccccc1)cn2-c1ccc(C)c(Cl)c1 7.37%, COc1ccc2c(c1)c1c(c(=O)n(-c3ccccc3C)c(=O)n1Cc1ccccc1C)n2C 0%, COc1ccc(OC)c(NC(=O)CN2C(=O)CC(c3ccco3)Sc3ccccc32)c1 (stereo not given) -13%, O=C(COc1ccc(Cl)cc1)Nc1cc(-c2ccccc2)no1 1.05%, COc1ccc(CNC(=O)c2cc3ccccn3n2)c(OC)c1 -3.86%, CCCCOc1ccc(CNC(=O)Cn2ncn3c(cc4cc(F)ccc43)c2=O)cc1 2.29%, Cn1nc(C(=O)N2CCN(c3ccccc3)CC2)c2c1-c1ccccc1SC2 2.48%, O=C(c1ccc2c(c1)OCO2)c1cn(Cc2ccc(F)cc2)c2ccccc2c1=O -6.11%, CCCCN(CC)C(=O)Cn1c(=O)n(-c2ccc(OCC)cc2)c(=O)c2c3c(sc21)CCC3 9.36%, CCCOC(=O)c1c(NC(=O)c2nc3ncccn3n2)sc(C(=O)OCC)c1C 0.403%, CC(=O)c1cccc(-n2c(=O)c3c4c(sc3n(Cc3ccccc3Cl)c2=O)CN(C(C)=O)CC4)c1 -1.98%, Cc1ccc(C2CCN(C(=O)c3cnn(-c4ccccc4Cl)c3C3CCN(C(=O)OC(C)(C)C)CC3)C2)cc1 (stereo not given) -7.49%, COc1cc(OC)c(C2C=C(C(=O)O)Nc3ncnn32)cc1OC (stereo not given) 2.16%, COc1ccccc1CNC(=O)c1cn(C)c2ccc(S(=O)(=O)N3CCC(C)CC3)cc2c1=O -2.84%, Cc1c(F)cccc1NC(=O)C1CCCN1S(=O)(=O)c1ccc(F)cc1 (stereo not given) -12.1%, Cc1ccc(C(=O)Nc2cccc(C(=O)OCc3cc(=O)n4c5c(sc4n3)CCCC5)c2)cc1 0%, Cc1ccc(NC(=O)C2CCCN(S(=O)(=O)c3cccc4cccnc34)C2)cc1Cl (stereo not given) 0.743%, Cc1ccc2[nH]cc(C(c3ccccc3)c3cccs3)c2c1 (stereo not given) 3.6%, COc1cc(OC)c(NC(=O)c2ccc3nc(C(C)C)oc3c2)cc1Cl 3.12%, Cc1ccc(C)c(NC(=O)N2CC=C(c3c[nH]c4ccccc34)CC2)c1 -14.3%, Cc1cc(C)c(NC(=O)CSc2nc(C)cc(C)c2C#N)c(C)c1 5.08%, Cc1cccc(N(C)C(=O)C(Cc2ccccc2)NS(=O)(=O)c2cccc3nsnc23)c1 (stereo not given) -14.3%, O=C(CN1Cc2ccccc2C1=O)Nc1cc(F)ccc1F 1.16%, COc1ccc(Nc2ccc3cc(S(=O)(=O)N4CCCC4)ccc3n2)cc1Cl -14.6%, COc1ccccc1OCC(=O)N(Cc1ccc(N(C)C)cc1)CC1CCCO1 (stereo not given) -3.69%, Cc1ccc2oc(=O)c3cnn(CC(=O)N(C)c4ccc(F)cc4)c3c2c1 -2.08%, CC(=O)c1ccc(NC(=O)C2CCN(S(=O)(=O)c3ccc4c(c3)CCCN4C(=O)C3CCC3)CC2)cc1 0.816%, CCOc1ccc(-n2c(SCC(=O)Nc3ccccc3OC)nc3c(oc4ccccc43)c2=O)cc1 2.49%, CCCSc1nc(=O)c2c(n1C)NC(=O)CC2c1cccc(F)c1F (stereo not given) -0.298%, O=C(Cn1c(-c2cccs2)cc2cc(Cl)ccc21)NCc1ccccc1 -12.7%, COc1ccc(N2CCN(C(=O)Cc3c(C(=O)O)c(C)cn3C)CC2)cc1 -0.0959%, CCOC(=O)c1c(NC(=O)CCCOc2ccc(C(C)(C)C)cc2)sc2c1CCC2 15.2%, COc1ccc(-n2nc3ccc(NC(=O)COc4ccc(C)c(C)c4)cc3n2)cc1 5.7%, CCc1ccccc1NC(=O)CN(Cc1ccccc1)S(=O)(=O)c1ccc2nc(C)sc2c1 -3.43%, Cc1cccc(NC(=O)Cn2cc(S(=O)(=O)c3ccc(F)cc3)c(=O)c3cc4c(cc32)OCO4)c1 0.35%, CCc1cc(C(=O)Nc2cnn(Cc3ccc(F)cc3)c2)no1 1.06%, CC(=O)c1cccc(NC(=O)c2cnn(-c3cccc(C)c3)c2-n2cccc2)c1 -9.26%, Cc1ccc(-c2c(C(=O)N3CCN(c4cccc(C)c4C)CC3)oc(=O)c3ccccc23)cc1 -5.44%, CCC(=O)N1CCc2cc(Br)cc(S(=O)(=O)NCCc3ccccc3Cl)c21 2.28%, COc1ccc(OC)c(CCNC(=O)c2cc3c(-c4ccccc4F)nn(C)c3s2)c1 0.716%, COc1ccc(C)cc1NS(=O)(=O)c1ccc2c(c1)[C@H]1C=CC[C@H]1[C@@H](c1cccc(Cl)c1)N2 -13.4%, CCOc1cc(C(=O)Nc2ccc3oc(-c4ccc(CC)cc4)nc3c2)cc(OCC)c1OCC 9.61%, COc1ccccc1CCNC(=O)CCn1c(=O)c2cccn2c2ccc(F)cc21 6.24%, Cc1cc(C)cc(NC(=O)CSCn2nnc3c(=O)[nH]c(Cc4ccc(F)cc4)nc32)c1 6.87%, COc1ccc(CCNC(=O)CCc2c(C)nc3cc(-c4ccccc4)nn3c2C)cc1OC 0.818%, Cc1noc(/C=C/c2ccco2)c1S(=O)(=O)N1CCC(C(=O)Nc2ccc(F)cc2F)CC1 -0.718%, CCCCN(Cc1ccccc1)C(=O)CN(C)S(=O)(=O)c1ccc2c(c1)c(=O)n(C)c(=O)n2C -0.635%
